According to article PMC4336329 (PLoS ONE, 2015):
The whole screen tested about 310,000 compounds, of which about 2,200 (0.71%) showed an effect of 50% or more. The effect is printed as a negative number. The list shows a part of the results.

target: human ether-à-go-go-related gene (hERG) potassium channel (human, UniProt Q12809); assay: primary screen, population patch clamp on CHO cells stably expressing hERG
Sequence (Q12809 whole entry, looked up): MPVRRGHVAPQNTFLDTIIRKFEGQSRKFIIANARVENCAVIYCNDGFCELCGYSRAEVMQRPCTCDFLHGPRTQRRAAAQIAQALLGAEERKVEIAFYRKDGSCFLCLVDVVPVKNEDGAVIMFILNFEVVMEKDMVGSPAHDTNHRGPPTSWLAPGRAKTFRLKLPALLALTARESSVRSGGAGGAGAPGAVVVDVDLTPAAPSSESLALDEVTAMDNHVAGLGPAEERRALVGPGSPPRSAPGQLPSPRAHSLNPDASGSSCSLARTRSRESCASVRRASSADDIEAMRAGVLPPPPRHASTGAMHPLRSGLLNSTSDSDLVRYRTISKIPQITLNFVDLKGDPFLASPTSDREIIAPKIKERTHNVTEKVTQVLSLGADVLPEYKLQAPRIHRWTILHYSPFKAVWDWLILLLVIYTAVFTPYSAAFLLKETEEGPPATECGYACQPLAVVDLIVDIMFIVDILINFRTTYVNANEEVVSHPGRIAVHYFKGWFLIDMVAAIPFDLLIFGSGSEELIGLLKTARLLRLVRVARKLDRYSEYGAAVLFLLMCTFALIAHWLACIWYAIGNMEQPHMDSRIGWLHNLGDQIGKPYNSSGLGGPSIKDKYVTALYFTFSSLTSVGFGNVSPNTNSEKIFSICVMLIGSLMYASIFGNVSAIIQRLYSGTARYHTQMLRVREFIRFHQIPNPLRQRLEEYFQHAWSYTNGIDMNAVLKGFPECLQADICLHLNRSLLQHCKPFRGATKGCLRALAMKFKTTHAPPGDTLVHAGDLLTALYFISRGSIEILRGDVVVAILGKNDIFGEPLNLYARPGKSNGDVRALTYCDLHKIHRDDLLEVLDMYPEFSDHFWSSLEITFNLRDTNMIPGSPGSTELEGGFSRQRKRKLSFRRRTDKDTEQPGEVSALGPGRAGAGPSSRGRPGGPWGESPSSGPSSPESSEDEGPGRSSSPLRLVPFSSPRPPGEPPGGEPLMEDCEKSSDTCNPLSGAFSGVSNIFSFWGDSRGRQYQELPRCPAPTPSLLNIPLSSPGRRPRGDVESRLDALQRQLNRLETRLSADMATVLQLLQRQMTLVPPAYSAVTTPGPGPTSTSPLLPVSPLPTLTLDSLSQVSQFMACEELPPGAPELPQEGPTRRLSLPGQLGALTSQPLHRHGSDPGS

SMILES | hERG current change (%, negative = inhibition) at 1uM [%]
COc1cccc(/C(C)=N/NC(=O)c2cc(-c3cccnc3)nc3ccccc23)c1 | -0.418
Cc1nc(N2CCOCC2)c(C#N)c2c1COC(C)(C)C2 | 7.52
COc1ccc(CNC(=O)C(OC(=O)c2cccs2)C(C)C)cc1 (stereo not drawn) | 8.66
Cc1n[nH]c(C)c1S(=O)(=O)NCCc1ccc(Cl)cc1 | 11
CCCCNC(=O)N1CCCN(c2ccc(C#N)cn2)CC1 | -11.6
CCC(NC(=O)CCc1c(C)c2cc3c(C)c(C)oc3cc2oc1=O)C(=O)N[C@@H](Cc1ccccc1)C(=O)O (stereo partly drawn) | 14.7
CN(Cc1ncc[nH]1)Cc1cn(-c2ccccc2)nc1-c1ccc2c(c1)OCO2 | 5.75
Cc1ccc(CCN=c2c([N+](=O)[O-])nn(-c3ccccc3)n2O)cc1 | 9.39
O=C1C=C(c2ccc3ccccc3c2)C[C@@H](c2ccc(F)cc2)C1 | -0.483
CCOc1ccc(-c2nc(N)ncc2-c2ccc(Cl)cc2)c(O)c1 | 0.835
COc1ccc(CNC(=O)Cn2cncn2)cc1OC | -12.7
CCc1ccc(-c2cc(C)no2)cc1S(=O)(=O)N1CCN(c2ccccc2F)CC1 | 14.8
c1ccc2c(c1)CCCN2Cc1nnnn1C1CCCC1 | 1.99
O=C(Nc1c(-c2ccccc2)nc2ccccn12)c1ccccc1 | 12.6
Cc1nn2c(=O)cc(CSCC(=O)Nc3ccccc3F)nc2s1 | 11.6
CC(C)COc1cccc(C(=O)N(CC(=O)Nc2ccccc2C(F)(F)F)Cc2ccco2)c1 | 13.7
O=C(c1ccco1)N(Cc1ccco1)Cc1cc2ccccc2[nH]c1=O | 3.63
CCC(C)[C@H](NC(=O)NCc1ccc(OC)c(OC)c1)C(=O)O (stereo partly drawn) | 3.45
COc1ccc(NC2=C(Cl)C(=O)N(c3ccccc3)C2=O)c(OC)c1 | 14.3
CC(=O)c1c(C)[nH]c(C(=O)Nc2ccc(C)cn2)c1C | 6.66
CCC(C)N(C(=O)CSc1nnc(-c2ccco2)n1C)C1CCS(=O)(=O)C1 (stereo not drawn) | -6.49
Cc1csc(CN(C)C(=O)CC2C(=O)NCCN2Cc2ccc(F)c(F)c2)n1 (stereo not drawn) | 14.8
Cc1ccc(S(=O)(=O)NCC(=O)OCC(=O)Nc2ncc(Cl)cc2Cl)cc1 | 19.2
CCCC(=O)Nc1ccc(C(=O)NN2C(=O)c3ccccc3C2=O)cc1 | 7.66
